For 31 sequences, binding signal results are on record in PMC12820563, “FoxP3 forms a head-to-head dimer in vivo and stabilizes its multimerization on adjacent microsatellites”.

Some of the results follow.

This assay concerns the target T1, MBP-FoxP1dN (Mus musculus, UniProt P58462 326-579).
T1 sequence: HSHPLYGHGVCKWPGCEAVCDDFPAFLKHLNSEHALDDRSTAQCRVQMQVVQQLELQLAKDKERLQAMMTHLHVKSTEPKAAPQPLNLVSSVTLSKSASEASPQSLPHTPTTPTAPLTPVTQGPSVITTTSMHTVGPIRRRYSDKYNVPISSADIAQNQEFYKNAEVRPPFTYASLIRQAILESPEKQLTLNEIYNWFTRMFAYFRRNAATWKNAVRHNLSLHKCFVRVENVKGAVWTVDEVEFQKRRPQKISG
In words: PD-seq (MBP pull-down with sequencing); 20 mM Tris-HCl pH 7.5, 100 mM NaCl, 1.5 mM MgCl2, 0.4 uM protein, 0.1 uM dsDNA library, 30 min, room temperature, amylose pull-down; high values mean tight binding. As to conditions: protein: recombinant; tags: His6-MBP; chain copies: 2; dsDNA, one strand shown. An outline of the steps:
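A degenerate double-stranded DNA library, filled in with Klenow, was added at 0.1 µM to 0.4 µM His6-MBP-tagged mouse FoxP3 or FoxP1 fragment lacking the N-terminus, expressed in E. coli. Incubation lasted 30 min at room temperature in Tris pH 7.5 buffer with NaCl and MgCl2, after which complexes were collected on amylose resin, washed three times, digested with proteinase K to free the DNA, barcoded by PCR and sequenced by Illumina. Binding is the pooled-replicate reads-per-million enrichment of pull-down over input.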
On to “GATGATTGTTCTCCCAGCTGATGAATTAAGGTGGTCGAGTAAACAAATTTTCCTAATCTTTCTGTTCAAGCGCCATCTAC”, for which the binding signal is 0.796 RPM ratio (pull-down/input).
In the case of “GATGATTGTTCTCCCAGCTGATGAATTCCTCGAGTCGAGTAAACAAATTTTCCTAATCTTTCTGTTCAAGCGCCATCTAC” it was 0.84 RPM ratio (pull-down/input); in that of “GATGATTGTTCTCCCAGCTGATGAATTTGATGCTTCGAGTAAACAAATTTTCCTAATCTTTCTGTTCAAGCGCCATCTAC”, 1.09 RPM ratio (pull-down/input); in that of “GATGATTGTTCTCCCAGCTGATGAATTGAGCACTTCGAGTAAACAAATTTTCCTAATCTTTCTGTTCAAGCGCCATCTAC”, 0.845 RPM ratio (pull-down/input).
The same measure for “GATGATTGTTCTCCCAGCTGATGAATTCTCTGGGTCGAGTAAACAAATTTTCCTAATCTTTCTGTTCAAGCGCCATCTAC”: 0.818 RPM ratio (pull-down/input).
“GATGATTGTTCTCCCAGCTGATGAATTGGCTCTCTCGAGTAAACAAATTTTCCTAATCTTTCTGTTCAAGCGCCATCTAC”: the binding signal is 0.875 RPM ratio (pull-down/input).
For the sequence “GATGATTGTTCTCCCAGCTGATGAATTTAGCCTTTCGAGTAAACAAATTTTCCTAATCTTTCTGTTCAAGCGCCATCTAC”, the binding signal was 0.954 RPM ratio (pull-down/input).
In the case of “GATGATTGTTCTCCCAGCTGATGAATTTGCACATTCGAGTAAACAAATTTTCCTAATCTTTCTGTTCAAGCGCCATCTAC”, the binding signal is 1.12 RPM ratio (pull-down/input).
The same measure for “GATGATTGTTCTCCCAGCTGATGAATTTTCGCTGTCGAGTAAACAAATTTTCCTAATCTTTCTGTTCAAGCGCCATCTAC”: 0.829 RPM ratio (pull-down/input); for “GATGATTGTTCTCCCAGCTGATGAATTCACACTATCGAGTAAACAAATTTTCCTAATCTTTCTGTTCAAGCGCCATCTAC”: 1.02 RPM ratio (pull-down/input); for “GATGATTGTTCTCCCAGCTGATGAATTAATGGAGTCGAGTAAACAAATTTTCCTAATCTTTCTGTTCAAGCGCCATCTAC”: 0.872 RPM ratio (pull-down/input).
As to “GATGATTGTTCTCCCAGCTGATGAATTGCTCGTGTCGAGTAAACAAATTTTCCTAATCTTTCTGTTCAAGCGCCATCTAC”, the binding signal was 0.971 RPM ratio (pull-down/input).
In the case of “GATGATTGTTCTCCCAGCTGATGAATTGTAGGCGTCGAGTAAACAAATTTTCCTAATCTTTCTGTTCAAGCGCCATCTAC” it was 1 RPM ratio (pull-down/input); in that of “GATGATTGTTCTCCCAGCTGATGAATTACCGTCTTCGAGTAAACAAATTTTCCTAATCTTTCTGTTCAAGCGCCATCTAC”, 0.947 RPM ratio (pull-down/input); in that of “GATGATTGTTCTCCCAGCTGATGAATTGCCCTCGTCGAGTAAACAAATTTTCCTAATCTTTCTGTTCAAGCGCCATCTAC”, 0.855 RPM ratio (pull-down/input).
Regarding “GATGATTGTTCTCCCAGCTGATGAATTCACGGGATCGAGTAAACAAATTTTCCTAATCTTTCTGTTCAAGCGCCATCTAC”, the binding signal was 0.827 RPM ratio (pull-down/input).
As for “GATGATTGTTCTCCCAGCTGATGAATTGGCGACATCGAGTAAACAAATTTTCCTAATCTTTCTGTTCAAGCGCCATCTAC”, the binding signal is 0.972 RPM ratio (pull-down/input).
As for “GATGATTGTTCTCCCAGCTGATGAATTCCAGGGCTCGAGTAAACAAATTTTCCTAATCTTTCTGTTCAAGCGCCATCTAC”, the binding signal is 0.734 RPM ratio (pull-down/input).
In the case of “GATGATTGTTCTCCCAGCTGATGAATTGCGCCAATCGAGTAAACAAATTTTCCTAATCTTTCTGTTCAAGCGCCATCTAC” it was 1.11 RPM ratio (pull-down/input).
The same measure for “GATGATTGTTCTCCCAGCTGATGAATTAAAGTATTCGAGTAAACAAATTTTCCTAATCTTTCTGTTCAAGCGCCATCTAC”: 1.04 RPM ratio (pull-down/input).
“GATGATTGTTCTCCCAGCTGATGAATTCACACCGTCGAGTAAACAAATTTTCCTAATCTTTCTGTTCAAGCGCCATCTAC”: the binding signal was 0.899 RPM ratio (pull-down/input).
In the case of “GATGATTGTTCTCCCAGCTGATGAATTGCTACATTCGAGTAAACAAATTTTCCTAATCTTTCTGTTCAAGCGCCATCTAC”, the binding signal was 1.21 RPM ratio (pull-down/input).
For “GATGATTGTTCTCCCAGCTGATGAATTTTCGATTTCGAGTAAACAAATTTTCCTAATCTTTCTGTTCAAGCGCCATCTAC”, the binding signal was 1.06 RPM ratio (pull-down/input).
In the case of “GATGATTGTTCTCCCAGCTGATGAATTTGGCGTGTCGAGTAAACAAATTTTCCTAATCTTTCTGTTCAAGCGCCATCTAC”, the binding signal is 0.932 RPM ratio (pull-down/input).
Consider “GATGATTGTTCTCCCAGCTGATGAATTGTCCACTTCGAGTAAACAAATTTTCCTAATCTTTCTGTTCAAGCGCCATCTAC”, for which the binding signal was 0.978 RPM ratio (pull-down/input).
“GATGATTGTTCTCCCAGCTGATGAATTCCCTTGTTCGAGTAAACAAATTTTCCTAATCTTTCTGTTCAAGCGCCATCTAC”: the binding signal was 0.835 RPM ratio (pull-down/input).
The same measure for “GATGATTGTTCTCCCAGCTGATGAATTAATTTTTTCGAGTAAACAAATTTTCCTAATCTTTCTGTTCAAGCGCCATCTAC”: 0.943 RPM ratio (pull-down/input); for “GATGATTGTTCTCCCAGCTGATGAATTCAATAACTCGAGTAAACAAATTTTCCTAATCTTTCTGTTCAAGCGCCATCTAC”: 1.17 RPM ratio (pull-down/input).
“GATGATTGTTCTCCCAGCTGATGAATTGTTCCAATCGAGTAAACAAATTTTCCTAATCTTTCTGTTCAAGCGCCATCTAC”: the binding signal is 1.22 RPM ratio (pull-down/input).
On to “GATGATTGTTCTCCCAGCTGATGAATTACGTTTTTCGAGTAAACAAATTTTCCTAATCTTTCTGTTCAAGCGCCATCTAC”, for which the binding signal was 1.23 RPM ratio (pull-down/input).
Consider “GATGATTGTTCTCCCAGCTGATGAATTCCGTGTGTCGAGTAAACAAATTTTCCTAATCTTTCTGTTCAAGCGCCATCTAC”, for which the binding signal is 0.919 RPM ratio (pull-down/input).
